Experiment [1] has as its system cucumber anthracnose fungi (Colletotrichum orbiculare). Briefly: Test Example H: cucumber anthracnose, spray treatment of cucumber plants. The note with it: for Test H control value class (cucumber anthracnose): 250 ppm spray, 2.5 ml/pot, cucumber Sagami Hanjiro, 6 to 10 days from inoculation; for Test H control value: cucumber anthracnose, 250 ppm spray (2.5 ml/pot), 6 to 10 days after inoculation.

The subject of experiment [2] is tomato late blight fungi (Phytophthora infestans). The experiment is classed as in vivo. The note with it: spray treatment of tomato plants; for Test F control value class (tomato late blight): control value=100{1-(n/3)}; for Test F control value: tomato late blight.
The test system of experiment [3] is rice blast fungi (Magnaporthe grisea). It is filed as in vivo. Particulars: spray treatment of rice plants; for Test A control value class (rice blast): control value=100{1-(n/3)}; for Test A control value: rice blast.

For `Cc1cccc(-n2cc(Cl)c(=O)c(Br)c2-c2c(F)cc(F)cc2F)c1C` [Compound 172], the “Test H control value class (cucumber anthracnose)” value (from here on “Test H control value class”) in experiment [1] was “H (H shows the control value of more than 50%)”. Further, the “Test F control value class (tomato late blight)” value (“Test F control value class” for short) in experiment [2] is “H (H shows the control value of more than 50%)”. Further, the “Test A control value class (rice blast)” value in experiment [3] is reported as “H (H shows the control value of more than 50%)”.
In the case of `Cc1cccc(-n2cc(Cl)c(=O)c(Cl)c2-c2c(F)cc(F)cc2F)c1C` [Compound 173], in experiment [1], the “Test H control value class” value was “H (H shows the control value of more than 50%)”. In addition, the “Test F control value class” value in experiment [2] is listed as “L (L shows the control value of 50% or less)”. Besides, the “Test A control value class (rice blast)” value in experiment [3] is “H (H shows the control value of more than 50%)”.
For `CCOc1cc(F)c(-c2c(C)c(=O)c(C)cn2-c2ccccc2C)c(F)c1` [Compound 176], the “Test H control value class” value in experiment [1] is reported as “H (H shows the control value of more than 50%)”. Further, the “Test F control value class” value in experiment [2] was “L (L shows the control value of 50% or less)”. Also, the “Test A control value class (rice blast)” value in experiment [3] was “H (H shows the control value of more than 50%)”.
Consider `Cc1ccc(F)cc1-n1cc(Br)c(=O)c(Cl)c1-c1c(F)cc(F)cc1F` [Compound 177], for which the “Test H control value class” value in experiment [1] is reported as “H (H shows the control value of more than 50%)”. Further, the “Test F control value class” value in experiment [2] is “L (L shows the control value of 50% or less)”. The “Test A control value class (rice blast)” value in experiment [3] is recorded as “H (H shows the control value of more than 50%)”.
As for `Cc1ccc(F)cc1-n1cc(Br)c(=O)c(Br)c1-c1c(F)cc(F)cc1F` [Compound 178], the “Test H control value class” value in experiment [1] is “H (H shows the control value of more than 50%)”. Besides, the “Test F control value class” value in experiment [2] is recorded as “L (L shows the control value of 50% or less)”. Also, in experiment [3], the “Test A control value class (rice blast)” value is “H (H shows the control value of more than 50%)”.
In the case of `Cc1ccc(F)cc1-n1cc(Cl)c(=O)c(Br)c1-c1c(F)cc(F)cc1F` [Compound 179], the “Test H control value class” value in experiment [1] is “H (H shows the control value of more than 50%)”. Also, in experiment [2], the “Test F control value class” value is on record as “L (L shows the control value of 50% or less)”. Besides, the “Test A control value class (rice blast)” value in experiment [3] is “H (H shows the control value of more than 50%)”.
As for `COCCn1cc(Br)c(=O)c(Br)c1-c1c(F)cc(F)cc1F` [Compound 213], the “Test H control value” in experiment [1] was “L (L shows the control value of 50% or less)”. Also, in experiment [2], the “Test F control value” is reported as “L (L shows the control value of 50% or less)”. The “Test A control value” in experiment [3] is on record as “L (L shows the control value of 50% or less)”.
Regarding `COc1cc(F)c(-c2c(Br)c(=O)c(Cl)cn2CC(C)(C)C)c(F)c1` [Compound 214], the “Test H control value” in experiment [1] is “H (H shows the control value of more than 50%)”. Besides, the “Test F control value” in experiment [2] was “H (H shows the control value of more than 50%)”. Also, the “Test A control value” in experiment [3] is “H (H shows the control value of more than 50%)”.
As for `COc1cc(F)c(-c2c(Cl)c(=O)c(Br)cn2CC(C)(C)C)c(F)c1` [Compound 215], the “Test H control value” in experiment [1] is listed as “L (L shows the control value of 50% or less)”. Besides, in experiment [2], the “Test F control value” was “L (L shows the control value of 50% or less)”. The “Test A control value” in experiment [3] is “H (H shows the control value of more than 50%)”.
As to `Cc1ccccc1-n1cc(C)c(=S)c(C)c1-c1c(F)cc(F)cc1F` [Compound 216], the “Test H control value” in experiment [1] was “H (H shows the control value of more than 50%)”. Moreover, the “Test F control value” in experiment [2] is “L (L shows the control value of 50% or less)”. In experiment [3], the “Test A control value” was “H (H shows the control value of more than 50%)”.
Consider `COc1ccc(C)c(-n2cc(Br)c(=O)c(Cl)c2-c2c(F)cc(F)cc2F)c1` [Compound 217, 5-bromo-3-chloro-1-(5-methoxy-2-methylphenyl)-2-(2,4,6-trifluorophenyl)pyridin-4(1H)-one], for which the “Test H control value” in experiment [1] is recorded as “H (H shows the control value of more than 50%)”. In experiment [2], the “Test F control value” was “L (L shows the control value of 50% or less)”. The “Test A control value” in experiment [3] is listed as “H (H shows the control value of more than 50%)”.
Turning to `COc1ccc(C)c(-n2cc(Br)c(=O)c(Br)c2-c2c(F)cc(F)cc2F)c1` [Compound 218], the “Test H control value” in experiment [1] is on record as “H (H shows the control value of more than 50%)”. The “Test F control value” in experiment [2] is listed as “L (L shows the control value of 50% or less)”. Moreover, in experiment [3], the “Test A control value” is recorded as “H (H shows the control value of more than 50%)”.
As to `Cc1c(-c2c(F)cc(F)cc2F)n(CC(C)C)cc(Br)c1=O` [Compound 219], the “Test H control value” in experiment [1] was “H (H shows the control value of more than 50%)”. Moreover, the “Test F control value” in experiment [2] was “L (L shows the control value of 50% or less)”. Besides, the “Test A control value” in experiment [3] was “H (H shows the control value of more than 50%)”.
As for `CCc1c(-c2c(F)cc(F)cc2F)n(CC(C)C)cc(Br)c1=O` [Compound 220], the “Test H control value” in experiment [1] was “H (H shows the control value of more than 50%)”. In addition, the “Test F control value” in experiment [2] is given as “L (L shows the control value of 50% or less)”. For the same compound, the “Test A control value” in experiment [3] was “H (H shows the control value of more than 50%)”.
For `CCCCn1cc(Cl)c(=O)c(Cl)c1-c1c(F)cc(F)cc1F` [Compound 221], the “Test H control value” in experiment [1] is recorded as “H (H shows the control value of more than 50%)”. For the same compound, the “Test F control value” in experiment [2] was “H (H shows the control value of more than 50%)”. Besides, the “Test A control value” in experiment [3] is recorded as “H (H shows the control value of more than 50%)”.
Turning to `CCCCn1cc(Cl)c(=O)c(Br)c1-c1c(F)cc(F)cc1F` [Compound 222], the “Test H control value” in experiment [1] is reported as “H (H shows the control value of more than 50%)”. Further, in experiment [2], the “Test F control value” is reported as “L (L shows the control value of 50% or less)”. Moreover, in experiment [3], the “Test A control value” is on record as “H (H shows the control value of more than 50%)”.
With `Cc1c(-c2c(F)cc(F)cc2F)n(CC(C)C)cc(Cl)c1=O` [Compound 223], in experiment [1], the “Test H control value” is “H (H shows the control value of more than 50%)”. The “Test F control value” in experiment [2] is given as “L (L shows the control value of 50% or less)”. In experiment [3], the “Test A control value” is listed as “H (H shows the control value of more than 50%)”.
For `CCc1c(-c2c(F)cc(F)cc2F)n(CC(C)C)cc(Cl)c1=O` [Compound 224], the “Test H control value” in experiment [1] was “H (H shows the control value of more than 50%)”. Moreover, in experiment [2], the “Test F control value” is “L (L shows the control value of 50% or less)”. In addition, the “Test A control value” in experiment [3] is listed as “H (H shows the control value of more than 50%)”.
With `COc1cc(F)c(-c2c(C)c(=S)c(C)cn2-c2ccccc2C)c(F)c1` [Compound 225], the “Test H control value” in experiment [1] was “H (H shows the control value of more than 50%)”. For the same compound, the “Test F control value” in experiment [2] was “L (L shows the control value of 50% or less)”. In addition, in experiment [3], the “Test A control value” is listed as “H (H shows the control value of more than 50%)”.
For the compound `Cc1ccccc1-n1cc(C)c(=O)c(C)c1-c1ccc(F)cc1` [Compound 226], in experiment [1], the “Test H control value” is listed as “H (H shows the control value of more than 50%)”. The “Test F control value” in experiment [2] is given as “L (L shows the control value of 50% or less)”. Further, the “Test A control value” in experiment [3] was “H (H shows the control value of more than 50%)”.
Take `Cc1ccccc1-n1cc(C)c(=O)c(C)c1-c1ccc(C#N)cc1` [Compound 227]: in experiment [1], the “Test H control value” is listed as “L (L shows the control value of 50% or less)”. For the same compound, the “Test F control value” in experiment [2] is “L (L shows the control value of 50% or less)”. The “Test A control value” in experiment [3] is given as “H (H shows the control value of more than 50%)”.

These data come from patent US11000038B2, “Pyridone compounds and agricultural and horticultural fungicides containing the same as active ingredients” (priority 2017, dated 2021).
